# Source: PMC6801735, “Identification of New DR5 Agonistic Nanobodies and Generation of Multivalent Nanobody Constructs for Cancer Treatment” (International Journal of Molecular Sciences, 2019)
# B1: death receptor 5 (DR5) ectodomain (domain or fragment)
# chain: not shown
# notes: death receptor 5 (DR5, TRAIL-R2), human, ectodomain, […]; The preparation was a mixture of monomer and a disulfide-linked dimer (band around 40,000 under non-reducing conditions); also called TRAIL-R2; KILLER receptor; source: E. coli SHuffle T7 Express (pET-28a/dr5), cytoplasmic, purified (Ni-NTA IMAC, SEC in 10 mM acetate pH 5.0)
# Molecular target: T1, TNF-related apoptosis-inducing ligand (TRAIL), soluble recombinant (human, UniProt P50591 114-281)
# T1 construct: TRAIL (Apo2L), human, soluble extracellular part, amino acids 114-281 of the 281-amino acid protein; It was stabilised with 10% glycerol, 0.01% mannitol, 8% trehalose, 20 uM zinc chloride and 1 mM dithiotreitol; also called Apo2L/TRAIL; recombinant trimeric TRAIL; source: E. coli SHuffle T7 Express (pET-28a/trail), cytoplasmic, purified (Ni-NTA IMAC, SEC in PBS)
# Assay: SPR; DR5 (monomer and dimer mixture) immobilised on a CM5 chip (~150 RU), Biacore T200; analyte in 150 mM NaCl, 0.005% Tween-20, 3.4 mM EDTA, 20 mM HEPES pH 7.4; 30 uL/min; 1:1 Langmuir model; apparent affinity
# Conditions: both partners purified
binder,measurement,value
B1,Kd,0.453 nM
same,koff,0.000313 s⁻¹
same,kon,691000 M⁻¹ s⁻¹
